Data published in PubChem BioAssay AID1259400 (National Center for Advancing Translational Sciences (NCATS), 2018).
Among all 350,000 compounds or so, about 2,100 (0.6%) were called active. Inconclusive means that the source gave no clear call. Such entries were picked first, then a sample of the others.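 How the source made its calls: active means activity change of -60% or lower, but not beyond a set lower limit; inconclusive means change between -60% and -40%, or beyond the set limit; inactive means change above -40%.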

Biological target: Relaxin receptor 1 (Homo sapiens) (UniProt Q9HBX9)
Sequence of UniProt Q9HBX9 (Q9HBX9 whole entry, looked up): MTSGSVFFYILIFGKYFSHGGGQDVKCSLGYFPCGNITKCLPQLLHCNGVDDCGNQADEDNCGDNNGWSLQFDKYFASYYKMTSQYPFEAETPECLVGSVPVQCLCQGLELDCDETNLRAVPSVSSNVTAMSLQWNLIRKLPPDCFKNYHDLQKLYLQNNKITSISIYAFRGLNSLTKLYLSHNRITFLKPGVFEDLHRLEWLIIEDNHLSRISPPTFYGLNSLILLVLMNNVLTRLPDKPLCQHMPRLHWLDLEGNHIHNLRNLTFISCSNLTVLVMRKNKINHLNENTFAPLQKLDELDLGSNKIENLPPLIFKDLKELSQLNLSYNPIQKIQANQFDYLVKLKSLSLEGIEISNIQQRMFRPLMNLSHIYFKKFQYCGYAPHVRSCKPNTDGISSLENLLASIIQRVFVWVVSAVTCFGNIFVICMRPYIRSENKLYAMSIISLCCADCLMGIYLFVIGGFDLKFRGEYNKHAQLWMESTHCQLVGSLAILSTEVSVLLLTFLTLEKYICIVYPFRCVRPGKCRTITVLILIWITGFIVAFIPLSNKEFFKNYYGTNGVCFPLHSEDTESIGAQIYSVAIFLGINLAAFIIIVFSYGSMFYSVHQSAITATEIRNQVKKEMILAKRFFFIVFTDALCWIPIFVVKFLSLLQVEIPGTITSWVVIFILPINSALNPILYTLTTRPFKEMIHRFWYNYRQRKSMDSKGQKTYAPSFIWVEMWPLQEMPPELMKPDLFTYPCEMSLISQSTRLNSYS
Test: qHTS Assay for Antagonists of the Relaxin Receptor RXFP1
Conditions: HEK293-RXFP1, relaxin-stimulated cAMP HTRF, 30 min; at 57.5 µM; stronger effect = lower value
On the % scale 0 is the no-effect control and ±100 the full control effect.

SMILES	activity change, negative = inhibition
c1ccc(CN2CCN(CCOCCOc3ccc4c(c3)CCC4)CC2)cc1	inconclusive: -41.2%
COc1ccc(C(O)(CC(C)C)C(CN2CCOCC2)c2ccccc2)cc1 (stereo not given)	inconclusive: -44.3%
CC(=O)c1cnn(-c2ccc(Cl)c(Cl)c2Cl)c1C	inconclusive: -51.4%
Cc1cc(Nc2cccc(C(F)(F)F)c2)n2nc(C)nc2n1	inactive: -2.79%
O=C(c1ccccc1)c1ccc(OCCOCCN2CCN(Cc3ccccc3)CC2)cc1	inconclusive: -51.4%
O=P(CCCCCCCCCP(=O)(c1ccccc1)c1ccccc1)(c1ccccc1)c1ccccc1	active: -72.2%
Cn1c(=O)c2[nH]c(SCCN3CCOCC3)nc2n(C)c1=S	active: -72.4%
Cc1cccc(OCCNc2ncccc2[N+](=O)[O-])c1	inactive: -3.98%
O=C(Cc1ccc(Cl)c(Cl)c1)Nc1ccc(S(=O)(=O)Nc2ncccn2)cc1	inactive: -1.68%
CC(=O)Oc1ccccc1C(=O)Nc1ncc([N+](=O)[O-])s1	active: -60.7%
O=C(CN1CCCCCC1)Nc1ccc(Oc2ccccc2)cc1	active: -64%
C=CCC(C(=O)c1ccccc1)[N+](C)(C)CC=C (stereo not given)	active: -82.2%
O=C(N/N=C/c1cccc(O)c1)c1ccc(COc2ccc3c(c2)CCC3)o1	inconclusive: -53.7%
COc1cccc(CC2(CO)CCCN(Cc3[nH]c4ccc(C)cc4c3C)C2)c1 (stereo not given)	inconclusive: -40.8%
CC1CN(CCCOc2ccccc2-c2ccccc2)CC(C)O1 (stereo not given)	inconclusive: -57.1%
Cn1c(SCC(=O)Nc2ccc(N3CCOCC3)cc2)nnc1-c1ccco1	inconclusive: -50.5%
Cc1ccc(C)c2c1N(Cc1ccccc1)C(=O)C21OCCO1	inactive: -11.8%
Cc1ccc(S(=O)(=O)Cc2sc3ccccc3[n+]2C)cc1	inconclusive: -46%
COc1ccc(C(=O)NCCn2cc(SCC(=O)Nc3ccc(C)cc3)c3ccccc32)cc1	inconclusive: -40.1%
Cc1ccc(C)c(S(=O)(=O)c2cn(C)c3cc(N4CCCCC4C)c(F)cc3c2=O)c1 (stereo not given)	inconclusive: -55%
Cc1ccc(S(=O)(=O)N2CCN(C(=O)CN3C(=O)NC4(CCCCC4)C3=O)CC2)c(C)c1	active: -61%
Cc1ccc(NC(=O)C(Cc2ccccc2)n2cccc2)cc1 (stereo not given)	inconclusive: -50.2%
O=S(=O)(/N=S1\CC=CCN1S(=O)(=O)c1ccccc1)c1ccccc1 (stereo not given)	active: -110%
Cc1ccc(Nc2nnc(SCC(O)=C(C#N)c3nc4ccccc4[nH]3)s2)c(C)c1	inconclusive: -41.7%
COc1ccc(-c2cc(C)no2)cc1S(=O)(=O)Nc1c(C)cc(C)cc1C	inconclusive: -46.5%
